Source: the supplement of paper PMC8728848
The list shows a part of the results.

Experiments:
Test in all cases: glycan array binding signal (z-score within array); higher = stronger binding
Conditions in all cases: glycan notation: IUPAC condensed, linker removed
[1] = molecular target: GlcNAc(b1-4)GlcNAc(b1-4)GlcNAc(b1-4)GlcNAc(b1-4)GlcNAc(b1-4)GlcNAc
Method in brief: (§1)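 Arrays were curated from the Consortium for Functional Glycomics database, 3228 in total, and kept only where the protein sequence was available. Binding is expressed as a within-array Z-score. This score was averaged across arrays of the same protein sequence at different concentrations or buffers and across linkers, and negative values can be read as non-binding.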

[2] = molecular target: GlcNAc(b1-4)[GlcNAc(b1-6)]GalNAc
Method in brief: as §1

[3] = molecular target: GlcNAc(b1-6)Gal(b1-4)GlcNAc
Method in brief: as §1

GlcNAc(b1-6)GalNAc = molecular target: GlcNAc(b1-6)GalNAc
Method in brief: as §1

Kdn(a2-3)Gal(b1-3)GlcNAc = molecular target: Kdn(a2-3)Gal(b1-3)GlcNAc
Method in brief: as §1

Kdn(a2-3)Gal(b1-4)GlcNAc = molecular target: Kdn(a2-3)Gal(b1-4)GlcNAc
Method in brief: as §1

[4] = molecular target: Man(a1-2)Man(a1-2)Man(a1-3)Man
Method in brief: as §1

[5] = molecular target: Man(a1-2)Man(a1-2)Man(a1-3)[Man(a1-2)Man(a1-3)[Man(a1-2)Man(a1-6)]Man(a1-6)]Man(b1-4)GlcNAc(b1-4)GlcNAc
Method in brief: as §1

[6] = molecular target: Man(a1-2)Man(a1-2)Man(a1-3)[Man(a1-2)Man(a1-6)[Man(a1-3)]Man(a1-6)]Man(b1-4)GlcNAc(b1-4)GlcNAc
Method in brief: as §1

[7] = molecular target: Man(a1-2)Man(a1-2)Man(a1-6)[Man(a1-3)]Man
Method in brief: as §1

Man(a1-2)Man(a1-3)Man = molecular target: Man(a1-2)Man(a1-3)Man
Method in brief: as §1

[8] = molecular target: Man(a1-2)Man(a1-3)[Man(a1-2)Man(a1-6)]Man
Method in brief: as §1

[9] = molecular target: Man(a1-2)Man(a1-3)[Man(a1-3)[Man(a1-6)]Man(a1-6)]Man(b1-4)GlcNAc(b1-4)GlcNAc
Method in brief: as §1

[10] = molecular target: Man(a1-2)Man(a1-3)[Man(a1-6)]Man(a1-6)[Man(a1-2)Man(a1-3)]Man(b1-4)GlcNAc(b1-4)GlcNAc
Method in brief: as §1

Man(a1-3)[Man(a1-6)]Man = molecular target: Man(a1-3)[Man(a1-6)]Man
Method in brief: as §1

[11] = molecular target: Man(a1-3)[Man(a1-6)]Man(a1-6)[Man(a1-3)]Man(b1-4)GlcNAc(b1-4)GlcNAc
Method in brief: as §1

[12] = molecular target: Man(a1-3)[Man(a1-6)]Man(b1-4)GlcNAc(b1-4)GlcNAc
Method in brief: as §1

Man(b1-4)GlcNAc = molecular target: Man(b1-4)GlcNAc
Method in brief: as §1

Neu5Ac(a2-3)Gal = molecular target: Neu5Ac(a2-3)Gal
Method in brief: as §1

[13] = molecular target: Neu5Ac(a2-3)Gal(b1-3)GalNAc
Method in brief: as §1

[14] = molecular target: Neu5Ac(a2-3)Gal(b1-3)GalNAc(b1-3)Gal(a1-4)Gal(b1-4)Glc
Method in brief: as §1

[15] = molecular target: Neu5Ac(a2-3)Gal(b1-3)GalNAc(b1-4)[Neu5Ac(a2-3)]Gal(b1-4)Glc
Method in brief: as §1

[16] = molecular target: Neu5Ac(a2-3)Gal(b1-3)GalNAc6S
Method in brief: as §1

[17] = molecular target: Neu5Ac(a2-3)Gal(b1-3)GlcNAc
Method in brief: as §1

[18] = molecular target: Neu5Ac(a2-3)Gal(b1-3)GlcNAc(b1-3)Gal(b1-3)GlcNAc
Method in brief: as §1

[19] = molecular target: Neu5Ac(a2-3)Gal(b1-3)GlcNAc(b1-3)Gal(b1-4)GlcNAc
Method in brief: as §1

[20] = molecular target: Neu5Ac(a2-3)Gal(b1-3)GlcNAc6S
Method in brief: as §1

[21] = molecular target: Neu5Ac(a2-3)Gal(b1-3)[Fuc(a1-4)]GlcNAc
Method in brief: as §1

[22] = molecular target: Neu5Ac(a2-3)Gal(b1-3)[Fuc(a1-4)]GlcNAc(b1-3)Gal(b1-4)[Fuc(a1-3)]GlcNAc
Method in brief: as §1

[23] = molecular target: Neu5Ac(a2-3)Gal(b1-3)[Neu5Ac(a2-3)Gal(b1-4)]GlcNAc
Method in brief: as §1

[24] = molecular target: Neu5Ac(a2-3)Gal(b1-3)[Neu5Ac(a2-6)]GalNAc
Method in brief: as §1

Neu5Ac(a2-3)Gal(b1-4)Glc = molecular target: Neu5Ac(a2-3)Gal(b1-4)Glc
Method in brief: as §1

[25] = molecular target: Neu5Ac(a2-3)Gal(b1-4)GlcNAc
Method in brief: as §1

[26] = molecular target: Neu5Ac(a2-3)Gal(b1-4)GlcNAc(b1-3)Gal(b1-3)GlcNAc
Method in brief: as §1

[27] = molecular target: Neu5Ac(a2-3)Gal(b1-4)GlcNAc(b1-3)Gal(b1-4)GlcNAc
Method in brief: as §1

[28] = molecular target: Neu5Ac(a2-3)Gal(b1-4)GlcNAc(b1-3)Gal(b1-4)GlcNAc(b1-3)Gal(b1-4)GlcNAc
Method in brief: as §1

B1: X56-1 (Clostridium perfringens), P26831 (protein)
chain: MGSSHHHHHHSSGLVPRGSHMASDPNRIIATYISNRQDAPTGNPDNIFDNNASTELVYKNPNRIDVGTYVGVKYSNPITLNNVEFLMGANSNPNDTMQKAKIQYTVDGREWIDLEEGVEYTMPGAIKVENLDLKVRGVRLIATEARENTWLGVRDINVNKKEDSNSGVEF
glycan array binding signal (z-score) [1]: -0.079
glycan array binding signal (z-score) [2]: -0.516
glycan array binding signal (z-score) [3]: -0.098
glycan array binding signal (z-score) (GlcNAc(b1-6)GalNAc): -0.035
glycan array binding signal (z-score) (Kdn(a2-3)Gal(b1-3)GlcNAc): -0.429
glycan array binding signal (z-score) (Kdn(a2-3)Gal(b1-4)GlcNAc): -0.06
glycan array binding signal (z-score) [4]: 0.293
glycan array binding signal (z-score) [5]: -0.313
glycan array binding signal (z-score) [6]: -0.323
glycan array binding signal (z-score) [7]: -0.028
glycan array binding signal (z-score) (Man(a1-2)Man(a1-3)Man): -0.265
glycan array binding signal (z-score) [8]: -0.1
glycan array binding signal (z-score) [9]: -0.387
glycan array binding signal (z-score) [10]: -0.13
glycan array binding signal (z-score) (Man(a1-3)[Man(a1-6)]Man): -0.231
glycan array binding signal (z-score) [11]: -0.349
glycan array binding signal (z-score) [12]: -0.014
glycan array binding signal (z-score) (Man(b1-4)GlcNAc): -0.251
glycan array binding signal (z-score) (Neu5Ac(a2-3)Gal): -0.204
glycan array binding signal (z-score) [13]: -0.18
glycan array binding signal (z-score) [14]: -0.474
glycan array binding signal (z-score) [15]: -0.008
glycan array binding signal (z-score) [16]: 0.015
glycan array binding signal (z-score) [17]: -0.364
glycan array binding signal (z-score) [18]: 0.086
glycan array binding signal (z-score) [19]: -0.432
glycan array binding signal (z-score) [20]: 0.12
glycan array binding signal (z-score) [21]: -0.221
glycan array binding signal (z-score) [22]: -0.177
glycan array binding signal (z-score) [23]: -0.513
glycan array binding signal (z-score) [24]: -0.342
glycan array binding signal (z-score) (Neu5Ac(a2-3)Gal(b1-4)Glc): -0.25
glycan array binding signal (z-score) [25]: -0.097
glycan array binding signal (z-score) [26]: -0.472
glycan array binding signal (z-score) [27]: 9.11
glycan array binding signal (z-score) [28]: -0.337
